{"source": "PubChem BioAssay AID1476", "about": "(National Center for Advancing Translational Sciences (NCATS), 2009)", "note": "The campaign covered roughly 200,000 compounds. About 4,500 (2.2%) were called active. This list was built around the results that the source calls inconclusive (neither active nor inactive); the mix of calls is not that of the screen. The call rests on the fitted dose curve; in most records, active means well fitted inhibition curve with a large enough effect; inconclusive means small, poorly fitted or top-dose-only effect, or effect the other way; inactive means flat fitted curve, though single readings scatter. Potencies beside an inconclusive call are fits to weak or partial responses and may not hold up. Potency means the concentration at half of the fitted maximal effect; tags describe the fitted curve by direction and shape."}
{"molecular_target": "Cruzipain (Trypanosoma cruzi) (UniProt P25779)", "sequence (P25779 whole entry, looked up)": "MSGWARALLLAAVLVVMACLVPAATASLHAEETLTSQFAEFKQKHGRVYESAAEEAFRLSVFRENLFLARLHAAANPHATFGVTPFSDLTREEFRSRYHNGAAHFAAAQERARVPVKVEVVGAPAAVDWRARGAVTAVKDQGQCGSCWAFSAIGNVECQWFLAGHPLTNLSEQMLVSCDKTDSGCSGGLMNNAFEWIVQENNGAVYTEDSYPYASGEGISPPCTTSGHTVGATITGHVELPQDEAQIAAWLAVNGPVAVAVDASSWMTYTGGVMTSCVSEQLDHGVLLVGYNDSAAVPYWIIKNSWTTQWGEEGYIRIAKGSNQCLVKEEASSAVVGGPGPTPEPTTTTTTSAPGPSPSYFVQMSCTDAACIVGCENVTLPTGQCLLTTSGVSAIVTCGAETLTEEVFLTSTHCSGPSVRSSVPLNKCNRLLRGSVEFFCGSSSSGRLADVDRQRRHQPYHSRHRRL", "assay": "qHTS Assay for Promiscuous and Specific Inhibitors of Cruzain (without detergent); further: nearly all actives have a fitted effect of over 40% in size;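 on max response, negative = inhibition: plate controls were enzyme without inhibitor for no effect and buffer without enzyme for full effect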", "details": "purified cruzain, Z-FR-AMC fluorescence, no detergent", "outline": "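Detergent-free condition (0.00005% Triton X-100) in acetate buffer pH 5.5 with DTT. 1.5 nM enzyme and compound were pre-mixed 15 min, then 2 uM Z-FR-AMC substrate added; reaction progress from fluorescence change between first and third reads (60 s).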"}
{"smiles": "CCn1c(O)c(C=Nc2ccc(N3CCOCC3)cc2)c(=O)n(CC)c1=S", "Potency": "inconclusive: 39.8 µM [activator, single point]"}
{"smiles": "COc1ccccc1N1CCN(S(=O)(=O)c2ccccc2F)CC1", "max response, negative = inhibition": "inactive: 0.452%"}
{"smiles": "N#CCCn1c(=O)c(-c2cccs2)nc2cnc(N3CCOCC3)nc21", "max response, negative = inhibition": "inactive: 4.52%"}
{"smiles": "O=C(N/N=C\\c1ccc(-c2ccc([N+](=O)[O-])cc2)o1)c1ccc2c(c1)OCO2", "Potency": "active: 7.94 µM"}
{"smiles": "O=C(CN1C(=O)/C(=C\\c2ccc(C(F)(F)F)cc2)Sc2ccccc21)NCc1ccco1", "Potency": "inconclusive: 31.6 µM [inhibitor, single point]"}
{"smiles": "Cc1oc(-c2ccccc2Cl)nc1CS(=O)CC(=O)N1CCN(c2cccc(C(F)(F)F)c2)CC1", "note": "(centres undefined)", "Potency": "inconclusive: 31.6 µM [activator, partial curve]"}
{"smiles": "COc1cc2c(cc1NC(=O)/C=C/c1ccc([N+](=O)[O-])cc1)oc1ccccc12", "Potency": "active: 5.01 µM"}
{"smiles": "CCCCOC(=O)C1=C(C)NC2=C(C(=O)CCC2)C1c1cc(OC)ccc1OC", "note": "(centres undefined)", "Potency": "inconclusive: 39.8 µM [activator, single point]"}
{"smiles": "COc1ccccc1N1CCN(S(=O)(=O)c2c(C)sc3ncn(CC(=O)N(C)c4ccc(C(C)C)cc4)c(=O)c23)CC1", "max response, negative = inhibition": "inactive: 23.3%"}
{"smiles": "Cc1[nH]n(-c2ccccc2)c(=O)c1C(C[N+](=O)[O-])c1ccc(Cl)cc1", "note": "(centres undefined)", "max response, negative = inhibition": "inactive: 3.89%"}
{"smiles": "CCCCn1c(/C=N/Nc2nc3ccccc3[nH]2)nc2ccccc21", "Potency": "inconclusive: 39.8 µM [activator, single point]"}
{"smiles": "CCOCCOC(=O)c1ccc(NC(=O)/C=C/c2ccc(OC)c(OC)c2)cc1", "Potency": "inconclusive: 39.8 µM [activator, single point]"}
{"smiles": "O=C(CSc1ncc2c(n1)-c1ccccc1N(Cc1ccc(F)cc1)S2(=O)=O)c1ccc(Cl)cc1", "Potency": "active: 25.1 µM"}
{"smiles": "Cc1ccc(Cl)cc1NC(=O)N1CCN(C)c2ncccc21", "Potency": "inconclusive: 39.8 µM [inhibitor, single point]"}
{"smiles": "COc1ccccc1-c1noc(-c2ccc(N3CCN(c4ccccc4)CC3)c([N+](=O)[O-])c2)n1", "Potency": "inconclusive: 39.8 µM [inhibitor, single point]"}
{"smiles": "Cc1ccc(CNC(=O)COC(=O)[C@@H]2CC(O)CN2S(=O)(=O)c2ccc3c(c2)OCCO3)cc1", "note": "(some centres undefined)", "Potency": "inconclusive: 39.8 µM [activator, single point]"}
{"smiles": "CC(C)OCCCN(Cc1ccco1)C(=O)c1cc2c(s1)-c1ccccc1OC2", "Potency": "inconclusive: 39.8 µM [inhibitor, single point]"}
{"smiles": "N#Cc1c(-c2ccccc2)cc(-c2ccccc2)nc1SCc1nnc(-c2ccccc2)o1", "Potency": "active: 5.01 µM"}
{"smiles": "COC(=O)c1cc2oc3ccccc3c2n1CC(=O)Nc1ccc(OC)c(OC)c1OC", "Potency": "inconclusive: 15.8 µM [activator, partial curve]"}
{"smiles": "CC(C)Oc1ccc(CNC(=O)C2CCN(C(=O)c3sccc3-n3cccc3)CC2)cc1", "Potency": "inconclusive: 39.8 µM [activator, single point]"}
{"smiles": "CC(=O)Nc1cccc(NC(=O)c2cc(-c3cccnc3)nc3ccc(Br)cc23)c1", "Potency": "inconclusive: 31.6 µM [activator, single point]"}
{"smiles": "COc1ccc(-c2nn(C)c(=O)c3ccccc23)cc1NC(=O)Cn1nc(-c2ccccc2)c2ccccc2c1=O", "Potency": "inconclusive: 1.26 µM [inhibitor, full curve, poor fit]"}
{"smiles": "CN(C)c1ccc(/C=N/NC(=O)c2ccc(CN3C(=O)c4cccc5cccc3c45)cc2)cc1", "Potency": "active: 3.98 µM"}
{"smiles": "Cc1ccc(NC(=O)Cn2c(=O)n(CCCC(=O)NCc3ccco3)c(=O)c3ccccc32)cc1", "Potency": "inconclusive: 31.6 µM [inhibitor, single point]"}
{"smiles": "CCOc1cc(C(=O)OCC(=O)c2c[nH]c3ccccc23)ccc1OCC(=O)N1CCOCC1", "Potency": "inconclusive: 31.6 µM [activator, single point]"}
{"smiles": "CCCC[C@H]1C(=O)O[C@H](C)[C@H](NC(=O)c2cccc(NC=O)c2OC)C(=O)O[C@@H](C)[C@@H]1OC(=O)CC(C)C", "Potency": "inconclusive: 22.4 µM [activator, partial curve]"}
{"smiles": "Cc1ccccc1C(=O)NN(C)c1nc2ccccc2nc1C(F)(F)F", "Potency": "inconclusive: 39.8 µM [inhibitor, single point]"}
{"smiles": "Cc1ccc(-c2cn(S(=O)(=O)c3cccc4nsnc34)nc2N)cc1", "Potency": "inconclusive: 31.6 µM [inhibitor, single point]"}
{"smiles": "COc1ccc(-c2cc(-c3ccccc3)nc(SCC(=O)Nc3ncc(C)s3)c2C#N)cc1", "Potency": "active: 7.94 µM"}
{"smiles": "COc1ccc(/C=C(\\NC(=O)c2cccs2)C(=O)Nc2ccccc2C)cc1OC", "Potency": "inconclusive: 25.1 µM [activator, single point]"}
{"smiles": "CCN(CC)c1ccc(NC(=O)C(Cc2ccccc2)NS(=O)(=O)c2ccc(Br)s2)c(C)c1", "note": "(centres undefined)", "max response, negative = inhibition": "inactive: 10%"}
{"smiles": "CC(=O)Nc1cccc(NC(=O)Cn2cnc3c2c(=O)n(C)c(=O)n3C)c1", "max response, negative = inhibition": "inactive: -3.36%"}
{"smiles": "O=C(Nc1cccc(Cl)c1)c1c(NC(=O)C(F)(F)F)sc2c1CCCC2", "Potency": "inconclusive: 39.8 µM [inhibitor, single point]"}
{"smiles": "CCOC(=O)c1cc(-c2ccc(F)cc2)n(CC(=O)N2CCCC2)c1C", "Potency": "inconclusive: 25.1 µM [activator, single point]"}
{"smiles": "Cc1cc(Cl)c(S(=O)(=O)NC(C(=O)O)C(C)C)cc1OCC(=O)NC1CCCCC1", "note": "(centres undefined)", "Potency": "inconclusive: 39.8 µM [activator, single point]"}
{"smiles": "COc1ccc(-c2cc(C(=O)N3CCN(c4ncccn4)CC3)c3ccccc3n2)c(OC)c1", "Potency": "inconclusive: 31.6 µM [activator, single point]"}
{"smiles": "O=C(Nc1ccc2oc(-c3cccc4ccccc34)nc2c1)c1ncn[nH]1", "Potency": "inconclusive: 10 µM [inhibitor, partial curve]"}
{"smiles": "CCOC(=O)c1ccc(NC(=O)c2cc3cc(C)ccc3n2C)cc1", "max response, negative = inhibition": "inactive: -13.7%"}
{"smiles": "CCOc1cc(-c2nc(-c3ccc(-c4ccc(C)cc4)nc3OC)no2)cc(OCC)c1OCC", "max response, negative = inhibition": "inactive: -11.3%"}
